# Among all 420,000 compounds or so, about 64,000 (15%) were called active. The shares of active, inactive and inconclusive entries below differ from those in the screen. Calls follow the shape of the dose curve; as a rule, active = well fitted inhibition curve with a large enough effect; inconclusive = small, poorly fitted or top-dose-only effect; inactive = flat fitted curve, though single readings scatter. Potencies of inconclusive entries are left out as doubtful fits.
# Experiment: qHTS for Inhibitors of human tyrosyl-DNA phosphodiesterase 1 (TDP1): qHTS in cells in absence of CPT; also: nearly all actives have a fitted effect of over 55% in size
# Conditions: DT40 Tdp1-/- hTDP1 cells, no CPT, ATP luminescence, 48 h; activity change, negative = growth inhibition: at 46.2 µM (top of the series) unless noted
# Summary of the method: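 A cellular qHTS used chicken DT40 cells lacking endogenous Tdp1 but carrying stably transfected human TDP1. Compounds were applied without camptothecin, and cell growth kinetics were judged by ATP-dependent luminescence after ≥48 hr.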
# % is scaled to controls: 0 for no effect and ±100 for the full control effect; potency is read from the fitted curve at half-maximal effect; tags tell the direction and shape of the fitted curve.
SMILES,Potency,"activity change, negative = growth inhibition"
C=CCn1c(C)cc(C(=O)CSc2nnc(NC(C)C)s2)c1C,"inconclusive [inhibitor, single point]",
O=C(COC(=O)/C=C/c1ccc(C(F)(F)F)cc1)Nc1ccc2[nH]c(=O)[nH]c2c1,,inactive: -13.2%
CCOC(=O)C1CCCCN1Cc1ccc(C(F)(F)F)cc1 (stereo unspecified),"inconclusive [inhibitor, single point]",
CSc1ccc(C2=C/C(=C3/SC(=S)NC3=O)c3ccccc3O2)cc1,"inconclusive [inhibitor, single point]",
C/C=C/C(=O)Nc1ccccc1Br,,inactive: -2.75%
COc1cccc(N(CC(=O)NC2CCCCC2)C(=O)Cn2nnc(-c3ccc(C)o3)n2)c1,,inactive: -4.57%
Cc1oc(-c2ccc(Cl)cc2)cc1C(=O)NC1CCN(Cc2ccccc2)CC1,"inconclusive [inhibitor, single point]",
Cc1ccc(Oc2cc(NN3CCCCC3)c([N+](=O)[O-])cc2[N+](=O)[O-])c(Cl)c1,"inconclusive [inhibitor, single point]",
CSCCC(NC(=O)c1ccco1)C(=O)NC1CCCCCC1 (stereo unspecified),,inactive: -13.1%
CCCCOc1ccc(S(=O)(=O)NCc2csc(-c3ccc(OC)cc3)n2)cc1,"inconclusive [inhibitor, full curve]",
O=S(=O)(CCc1nc2ccccc2[nH]1)c1ccc(Br)cc1,"inconclusive [inhibitor, single point]",
CCOC(=O)[C@]12CCC=C1N(Cc1ccco1)C(=O)[C@H](CC(=O)NCCC(C)C)C2,,inactive: -26.9%
N#CCCn1cc(/C=N/N=C2\NC(=O)C(CC(=O)O)S2)c(-c2ccc(F)cc2)n1 (stereo unspecified),,inactive: 2.6%
CC(C)C(NC(=O)c1ccc(F)cc1)C(=O)N1CCN(c2ccccn2)CC1 (stereo unspecified),"inconclusive [inhibitor, single point]",
CCCCN1C(=N)N([C@@H](C)CN2CCC[C@H]2CN2C(N)=NC[C@H]2CC(C)C)C[C@H]1Cc1ccccc1,"inconclusive [inhibitor, partial curve, poor fit]",
Cc1cccc(C(C)C)c1NC(=O)C(C)OC(=O)Cc1n[nH]c(=O)c2ccccc12 (stereo unspecified),,inactive: -8.62%
CC(C)(C)c1cc(C(=O)N/N=C/c2ccc(O)cc2)n(-c2ccccc2)n1,"inconclusive [inhibitor, partial curve]",
COc1ccc(N2CCN(c3nc(-c4cccs4)nc4ccccc34)CC2)cc1,active: 23.1 µM,
O=C1c2cccc3cccc(c23)C(=O)N1CCN1CCN(C(=S)Nc2ccc(Cl)cc2)CC1,"inconclusive [inhibitor, single point]",
Cc1ccc2c(c1)[C@@H]1CN(C)CC[C@@H]1N2S(=O)(=O)c1ccc(F)cc1,"inconclusive [inhibitor, single point]",
COCC(C)n1c(C)cc(C(=O)CSc2nnc(Nc3ccccc3F)s2)c1C (stereo unspecified),"inconclusive [inhibitor, single point]",
COc1ccc(CC(=O)NCC(c2cccs2)S(=O)(=O)c2ccc(Cl)cc2)cc1 (stereo unspecified),"inconclusive [inhibitor, single point]",
O=C1C(C2=NC(c3ccccn3)C3C(=O)N(c4ccc(Cl)cc4Cl)C(=O)C23)=C(O)c2ccccc21 (stereo unspecified),"inconclusive [inhibitor, single point]",

SMILES,Potency,"activity change, negative = growth inhibition"
COc1ccc(-n2ccn(CC(=O)NCc3ccc(C)cc3)c(=O)c2=O)cc1OC,,inactive: -3.23%
CCN(CC)S(=O)(=O)c1cccc(C(=O)OCC(=O)N2CC(=O)Nc3ccccc32)c1,,inactive: -5.74%
COc1ccc(Cl)cc1C(=O)Nn1c(C)nc2ccccc2c1=O,"inconclusive [inhibitor, single point]",
CCCNC(=O)C1(C)CCCN(Cc2cc3ccccc3o2)C1 (stereo unspecified),active: 23.1 µM,
COc1ccc2c(-c3ccccc3)cc(SC(C)C(N)=O)nc2c1 (stereo unspecified),"inconclusive [inhibitor, single point]",
Cc1ccc(S(=O)(=O)NCCc2nnc3ccc(SCc4ccc(F)cc4)nn23)cc1,active: 18.4 µM,
CC(=O)Nc1ccc(-c2ccnc3c2CC(C)(C(=O)Nc2ccc4c(c2)OCO4)O3)cc1 (stereo unspecified),"inconclusive [inhibitor, single point]",
Cc1cnn(-c2cc(N/N=C/c3ccccc3F)ncn2)c1,,inconclusive: -32% [inhibitor]
COc1ccc(OC)c(NC(=O)C2CCCC2)c1,,inactive: -1.16%
CN(C(=O)COC(=O)c1ccccc1OCc1ccc(Cl)cc1)c1c(N)n(Cc2ccccc2)c(=O)[nH]c1=O,"inconclusive [inhibitor, partial curve]",
O=C(/C=C/c1ccc(F)cc1)N1CCN(S(=O)(=O)/C=C/c2ccccc2)CC1,,inactive: -6.59%
Cc1c(C(=O)N2CCCC2)oc2c1-c1nn(CC(=O)NC(C)c3ccccc3)cc1CC2 (stereo unspecified),active: 23.1 µM,
O=C(CNC(=O)c1ccccc1F)NCCOc1cccc(Cl)c1Cl,,inactive: -15.2%
COc1c(O)cc(O)cc1O,,inactive: -19.3%
Cc1ccc(NC(=S)/N=C(\N)Nc2nc(C)c3ccccc3n2)cc1C,"inconclusive [inhibitor, single point]",
Cc1cccc(OCCC(=O)Nc2ccc(Cl)cc2F)c1,,inactive: 0.341%
O=C(NC(=S)Nc1ccccc1C(=O)O)c1ccc(-c2ccc(Br)cc2)o1,,inactive: -10.9%
COc1ccc(NC(=O)C2Cc3c(-c4ccccc4Oc4ccccc4)ccnc3O2)cn1 (stereo unspecified),active: 14.6 µM,
CCC(C(=O)Nc1cc(OC)ccc1OC)n1c(C)c2cnn(-c3ccccc3)c(=O)c2c1C (stereo unspecified),"inconclusive [inhibitor, single point]",
Cn1c(=O)c2c(ncn2CC(=O)OCC(=O)c2ccc(F)c(F)c2)n(C)c1=O,,inactive: 4.47%
O=C(CNC(=O)c1ccc(Cl)cc1)OCC(=O)N1CCCC1,,inactive: -10.2%
Cc1ccc2oc(C(=O)Nc3cccc(-c4nc5ccccc5s4)c3)c(C)c2c1,"inconclusive [inhibitor, single point]",
Cc1cc(C)cc(C(=O)N(C)C2CCCN(Cc3ccccc3F)C2)c1 (stereo unspecified),"inconclusive [inhibitor, single point]",
